# Results from the supplement of paper PMC8728848.
# The other results are listed elsewhere or left out.
# B1: Epa1-NP (Candida glabrata), Q6VBJ0 (protein)
# chain: MILNPALFLNKCVCIYTTLILLLLTNGGYATSSNDISLASKDPTTFPLGCSPDITTPKKGLSMELYSYDFRKKGSYPCWDAAYLDPNYPRTGYKSHRLLAKVDGVTGNINFYYHATKGCTPQLGHLPASYNYPKPLTMTNFTMLLYGYFRPKVTGFHTFTISADDLLFVNFGAGNAFDCCRRDSSADHFGNYQAYAIWGSKTAKDELTVHLDAGVYYPIRLFYNNREYDGALSFTFKTESNENTVSDFSEYFFSLDDTEEGCPGLISYDSSCASVKTSKIIGIDYHTETPNENLVPITKTIYHLGIPCTGTTTTPLCGSGFYDPLANKCVTINTSSTSSVTKTTSHTTSKEVSFHSSISSQKTLIPKSIPSPYGPIKSQSIPTEMETSSEISSSEYAFSDVISTPSHSPYTKKHSSLNSSSYTSTVIHSLTSYSISQGIFSTSLSEQNITSKSSTDKFSTATSMSNNITQSSIIISQFSTNNENYTTTSMHTSSDKISTETLNNSISTTTSILFSNSSTILKNNTTIISSDKDTHYHPVNPTIVCSTNKTEIICASITQPSISNSNNHWSSSVLKFNSTTVRSTLPSSAGSNETSINVPFSSSTESNTSTSSTSTSNSKMVRSTLPSSAGSNETSISVPFSSSTESNTSTSSTSTSNSKMVRSTLPSSAGSNETSINVPFSSSTESNTSTSSTSTSNSKTVRSTPFSSAGIIMTSLSQRNNKSASSYASSNSKCYNTADSCRKVHSTPSYLLTSSYTSEGVDYDCSLVSTKLKINDTNCVNNKHTTKSCLKTSVTTTIPTLEIKTARKSSSNTIGLHSYPTSSPNKSISSAPIIGYISSFKTIKTASPSYQTSDLTTITTITSLNNPGSTAVENTHESNDKSRKTSSNDISSKHSVIKETKDAVESSNKSHQTNTLKCSSIIIASSSHNSYESLGGTTLTLTLSKVYSPQNNDTLPFLEISEVNPSRTVLPESSKMMQYLTSTEERNKTARNTIATNIVSISTFHFEGEGNAIRMGYTQLLLMLIGIIVMNIGT
# Tests used:
# Assay in all cases: glycan array binding signal (z-score within array); higher = stronger binding
# Conditions in all cases: glycan notation: IUPAC condensed, linker removed
# Gal(a1-4)Gal(b1-4)GlcNAc = target: Gal(a1-4)Gal(b1-4)GlcNAc
# In short: (§1)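 Negative Z-scores can be read as non-binding. The Z-score is calculated within each array and then averaged across arrays of one protein sequence at different concentrations or buffers and across linkers. Arrays, 3228 in all, were curated from the Consortium for Functional Glycomics database and kept only where the protein sequence was available.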
# [1] = target: Gal(a1-4)Gal(b1-4)GlcNAc(b1-2)Man(a1-3)[Gal(a1-4)Gal(b1-4)GlcNAc(b1-2)Man(a1-6)]Man(b1-4)GlcNAc(b1-4)GlcNAc
# In short: as §1
# [2] = target: Gal(a1-4)Gal(b1-4)GlcNAc(b1-3)Gal(b1-4)Glc
# In short: as §1
# Gal(a1-4)GlcNAc = target: Gal(a1-4)GlcNAc
# In short: as §1
# Gal(a1-6)Glc = target: Gal(a1-6)Glc
# In short: as §1
# Gal(b1-2)Gal = target: Gal(b1-2)Gal
# In short: as §1
# Gal(b1-3)Gal = target: Gal(b1-3)Gal
# In short: as §1
# Gal(b1-3)Gal(b1-4)GlcNAc = target: Gal(b1-3)Gal(b1-4)GlcNAc
# In short: as §1
# [3] = target: Gal(b1-3)Gal(b1-4)GlcNAc(b1-2)Man(a1-3)[Gal(b1-3)Gal(b1-4)GlcNAc(b1-2)Man(a1-6)]Man(b1-4)GlcNAc(b1-4)GlcNAc
# In short: as §1
# Gal(b1-3)GalNAc = target: Gal(b1-3)GalNAc
# In short: as §1
# [4] = target: Gal(b1-3)GalNAc(a1-3)[Fuc(a1-2)]Gal(b1-4)Glc
# In short: as §1
# [5] = target: Gal(b1-3)GalNAc(a1-3)[Fuc(a1-2)]Gal(b1-4)GlcNAc
# In short: as §1
# Gal(b1-3)GalNAc(b1-3)Gal = target: Gal(b1-3)GalNAc(b1-3)Gal
# In short: as §1
# [6] = target: Gal(b1-3)GalNAc(b1-3)Gal(a1-4)Gal(b1-4)Glc
# In short: as §1
# [7] = target: Gal(b1-3)GalNAc(b1-3)Gal(b1-4)Glc
# In short: as §1
# [8] = target: Gal(b1-3)GalNAc(b1-3)Gal(b1-4)GlcNAc
# In short: as §1
# [9] = target: Gal(b1-3)GalNAc(b1-4)Gal(b1-4)Glc
# In short: as §1
# [10] = target: Gal(b1-3)GalNAc(b1-4)[Neu5Ac(a2-3)]Gal(b1-4)Glc
# In short: as §1
# Gal(b1-3)GlcNAc = target: Gal(b1-3)GlcNAc
# In short: as §1
# [11] = target: Gal(b1-3)GlcNAc(a1-3)Gal(b1-4)GlcNAc
# In short: as §1
# [12] = target: Gal(b1-3)GlcNAc(a1-6)Gal(b1-4)GlcNAc
# In short: as §1
# Gal(b1-3)GlcNAc(b1-2)Man = target: Gal(b1-3)GlcNAc(b1-2)Man
# In short: as §1
# [13] = target: Gal(b1-3)GlcNAc(b1-2)Man(a1-3)[Gal(b1-3)GlcNAc(b1-2)Man(a1-6)]Man(b1-4)GlcNAc(b1-4)GlcNAc
# In short: as §1
# [14] = target: Gal(b1-3)GlcNAc(b1-2)Man(a1-3)[Gal(b1-3)GlcNAc(b1-2)Man(a1-6)]Man(b1-4)GlcNAc(b1-4)[Fuc(a1-6)]GlcNAc
# In short: as §1
# [15] = target: Gal(b1-3)GlcNAc(b1-2)Man(a1-3)[GlcNAc(b1-4)][Gal(b1-3)GlcNAc(b1-2)Man(a1-6)]Man(b1-4)GlcNAc(b1-4)GlcNAc
# In short: as §1
# [16] = target: Gal(b1-3)GlcNAc(b1-2)[Gal(b1-3)GlcNAc(b1-6)]Man(a1-6)[Gal(b1-3)GlcNAc(b1-2)Man(a1-3)]Man(b1-4)GlcNAc(b1-4)GlcNAc
# In short: as §1
# [17] = target: Gal(b1-3)GlcNAc(b1-3)Gal(b1-3)GlcNAc
# In short: as §1
# [18] = target: Gal(b1-3)GlcNAc(b1-3)Gal(b1-4)Glc
# In short: as §1
# [19] = target: Gal(b1-3)GlcNAc(b1-3)Gal(b1-4)GlcNAc
# In short: as §1
# [20] = target: Gal(b1-3)GlcNAc(b1-3)Gal(b1-4)GlcNAc(b1-2)Man(a1-3)[Gal(b1-3)GlcNAc(b1-3)Gal(b1-4)GlcNAc(b1-2)Man(a1-6)]Man(b1-4)GlcNAc(b1-4)GlcNAc
# In short: as §1
binder,measurement,setting,value
B1,glycan array binding signal (z-score),Gal(a1-4)Gal(b1-4)GlcNAc,-0.027
same,glycan array binding signal (z-score),[1],-0.225
same,glycan array binding signal (z-score),[2],-0.181
same,glycan array binding signal (z-score),Gal(a1-4)GlcNAc,0.658
same,glycan array binding signal (z-score),Gal(a1-6)Glc,0.361
same,glycan array binding signal (z-score),Gal(b1-2)Gal,0.199
same,glycan array binding signal (z-score),Gal(b1-3)Gal,2.9
same,glycan array binding signal (z-score),Gal(b1-3)Gal(b1-4)GlcNAc,5
same,glycan array binding signal (z-score),[3],-0.2
same,glycan array binding signal (z-score),Gal(b1-3)GalNAc,2.56
same,glycan array binding signal (z-score),[4],1.27
same,glycan array binding signal (z-score),[5],1.42
same,glycan array binding signal (z-score),Gal(b1-3)GalNAc(b1-3)Gal,2.91
same,glycan array binding signal (z-score),[6],1.31
same,glycan array binding signal (z-score),[7],1.31
same,glycan array binding signal (z-score),[8],1.4
same,glycan array binding signal (z-score),[9],8.65
same,glycan array binding signal (z-score),[10],2.27
same,glycan array binding signal (z-score),Gal(b1-3)GlcNAc,-0.001
same,glycan array binding signal (z-score),[11],-0.285
same,glycan array binding signal (z-score),[12],-0.035
same,glycan array binding signal (z-score),Gal(b1-3)GlcNAc(b1-2)Man,-0.026
same,glycan array binding signal (z-score),[13],0.837
same,glycan array binding signal (z-score),[14],0.136
same,glycan array binding signal (z-score),[15],0.523
same,glycan array binding signal (z-score),[16],0.207
same,glycan array binding signal (z-score),[17],-0.16
same,glycan array binding signal (z-score),[18],-0.2
same,glycan array binding signal (z-score),[19],-0.183
same,glycan array binding signal (z-score),[20],-0.121
